Where a SMILES comes first, the peptide text is derived from it. [ ]: non-standard residue; d: D form. The star is where a group is joined. ξ: configuration not given here. Doxorubicin(3'-N) = COc1cccc2c1C(=O)c1c(O)c3c(c(O)c1C2=O)C[C@@](O)(C(=O)CO)C[C@@H]3O[C@H]1C[C@H](N*)[C@H](O)[C@H](C)O1; X10 = CN(CCNC(=O)c1cc(Oc2ccc(NC(=O)Nc3ccc(Cl)c(C(F)(F)F)c3)cc2)ccn1)*; Mal(CH2CH2O)6CH2CH2CO = O=C1C=CC(=O)N1CCOCCOCCOCCOCCOCCOCCC(=O)*; X4 = [NH3+][Pt-2]1([NH3+])[O]C(=O)C2(CN(*)C2)C(=O)[O]1; Hexanoyl(6-maleimido) = O=C1C=CC(=O)N1CCCCCC(=O)*; Butanoyl(4-maleimido) = O=C1C=CC(=O)N1CCCC(=O)*; Propanoyl(3-maleimido) = O=C1C=CC(=O)N1CCC(=O)*; Maleimidoacetyl = O=C1C=CC(=O)N1CC(=O)*; X1 = O=C1C=CC(=O)N1CCOCCOCCOCCC(=O)*; PEG6 = NCCOCCOCCOCCOCCOCCOCCC(=O)O; PEG4 = NCCOCCOCCOCCOCCC(=O)O; PEG3 = NCCOCCOCCOCCC(=O)O; PEG2 = NCCOCCOCCC(=O)O; ξL = CC(C)CC(N)C(=O)O
Assay: Water solubility test (observation and HPLC)
Format: physicochemical
Conditions: thermodynamic from solid; lyophilized compound dissolved in water; checked by observation and HPLC (>95%)
Method: The compounds prepared in accordance with the examples of the disclosure and the reference compounds C1, C2, C3 and C4 were lyophilized (−70° C.).

SMILES	solubility
C[C@@H](NC(=O)CCOCCOCCNC(=O)CCN1C(=O)C=CC1=O)C(=O)N[C@H](C)C(=O)N[C@H](CC(N)=O)C(=O)Nc1ccc(COC(=O)N(C)CCNC(=O)c2cc(Oc3ccc(NC(=O)Nc4ccc(Cl)c(C(F)(F)F)c4)cc3)ccn2)cc1 [QHL-086-compound a]	> 20 mg/mL
C[C@@H](NC(=O)CCOCCOCCOCCNC(=O)CCN1C(=O)C=CC1=O)C(=O)N[C@H](C)C(=O)N[C@H](CC(N)=O)C(=O)Nc1ccc(COC(=O)N(C)CCNC(=O)c2cc(Oc3ccc(NC(=O)Nc4ccc(Cl)c(C(F)(F)F)c4)c(F)c3)ccn2)cc1 [QHL-089-compound b]	> 20 mg/mL
COc1cccc2c1C(=O)c1c(O)c3c(c(O)c1C2=O)C[C@@](O)(C(=O)CO)C[C@@H]3O[C@H]1C[C@H](NC(=O)[C@H](CC(C)C)NC(=O)[C@H](CC(N)=O)NC(=O)[C@H](C)NC(=O)[C@H](C)N)[C@H](O)[C@H](C)O1 [AANL-DOX, reference compound] (H-AANL-{Doxorubicin(3'-N)})	< 1 mg/mL
C[C@H](NC(=O)CCOCCOCCOCCNC(=O)CCN1C(=O)C=CC1=O)C(=O)N[C@@H](C)C(=O)N[C@@H](CC(N)=O)C(=O)Nc1ccc(COC(=O)OCC(=O)[C@@]2(O)CCC3C4CCC5=CC(=O)C=C[C@]5(C)C4C(=O)C[C@@]32C)cc1 (some centres unmarked) [QHL-089-prednisone]	> 10 mg/mL
CC(NC(=O)CCOCCOCCNC(=O)CCCN1C(=O)C=CC1=O)C(=O)NC(C)C(=O)NC(CC(N)=O)C(=O)Nc1ccc(COC(=O)N2CC3(C2)C(=O)[O][Pt-2]([NH3+])([NH3+])[O]C3=O)cc1 (centres unmarked) [QHL-098-N-CBP]	> 20 mg/mL
C[C@H](NC(=O)CCOCCOCCOCCOCCOCCOCCOCCOCCOCCOCCOCCOCCN1C(=O)C=CC1=O)C(=O)N[C@@H](C)C(=O)NC(CC(N)=O)C(=O)Nc1ccc(COC(=O)OCC(=O)[C@]2(O)CCC3[C@H]4CCC5=CC(=O)C=C[C@@]5(C)C4C(=O)C[C@]32C)cc1 (some centres unmarked) [QHL-147-prednisone]	> 10 mg/mL
CC(C)C[C@H](NC(=O)[C@H](CC(N)=O)NC(=O)[C@H](C)NC(=O)[C@H](C)NC(=O)CCOCCOCCOCCNC(=O)CCCN1C(=O)C=CC1=O)C(=O)N1CC2(C1)C(=O)[O][Pt-2]([NH3+])([NH3+])[O]C2=O [QHL-102-N-CBP] ({Butanoyl(4-maleimido)-PEG3}-AANL-X4)	> 10 mg/mL
COc1cccc2c1C(=O)c1c(O)c3c(c(O)c1C2=O)C[C@@](O)(C(=O)CO)C[C@@H]3O[C@H]1C[C@H](NC(=O)[C@H](CC(C)C)NC(=O)[C@H](CC(N)=O)NC(=O)[C@H](C)NC(=O)[C@H](C)NC(=O)[C@H](CCC(=O)O)NC(=O)CCOCCOCCOCCNC(=O)CCN2C(=O)C=CC2=O)[C@H](O)[C@H](C)O1 [QHL-045-DOX] ({Propanoyl(3-maleimido)-PEG3}-EAANL-{Doxorubicin(3'-N)})	> 20 mg/mL
COc1cccc2c1C(=O)c1c(O)c3c(c(O)c1C2=O)C[C@@](O)(C(=O)CO)C[C@@H]3O[C@H]1C[C@H](NC(=O)[C@H](CC(C)C)NC(=O)[C@H](CC(N)=O)NC(=O)[C@H](C)NC(=O)[C@H](C)NC(=O)CNC(=O)CCCCCN2C(=O)C=CC2=O)[C@H](O)[C@H](C)O1 [QHL-121-DOX] ({Hexanoyl(6-maleimido)}-GAANL-{Doxorubicin(3'-N)})	> 10 mg/mL
COc1cccc2c1C(=O)c1c(O)c3c(c(O)c1C2=O)C[C@@](O)(C(=O)CO)C[C@@H]3O[C@H]1C[C@H](NC(=O)[C@H](CC(C)C)NC(=O)[C@H](CC(N)=O)NC(=O)[C@H](C)NC(=O)[C@H](C)NC(=O)[C@H](CC(=O)O)NC(=O)CCOCCOCCOCCN2C(=O)C=CC2=O)[C@H](O)[C@H](C)O1 [QHL-034-DOX] (X1-DAANL-{Doxorubicin(3'-N)})	> 20 mg/mL
C[C@H](NC(=O)CCOCCOCCOCCOCCOCCOCCNC(=O)CCN1C(=O)C=CC1=O)C(=O)N[C@@H](C)C(=O)N[C@H](CC(N)=O)C(=O)Nc1ccc(COC(=O)OCC(=O)[C@]2(O)CCC3[C@H]4CCC5=CC(=O)C=C[C@@]5(C)C4C(=O)C[C@]32C)cc1 (some centres unmarked) [QHL-095-prednisone]	> 10 mg/mL
CC(C)CC(NC(=O)C(CC(N)=O)NC(=O)C(C)NC(=O)C(C)NC(=O)CCCN1C(=O)C=CC1=O)C(=O)N1CC2(C1)C(=O)[O][Pt-2]([NH3+])([NH3+])[O]C2=O (centres unmarked) [QHL-141-N-CBP] ({Butanoyl(4-maleimido)}-AANL-X4; configuration not given here)	> 20 mg/mL
COc1cccc2c1C(=O)c1c(O)c3c(c(O)c1C2=O)C[C@@](O)(C(=O)CO)C[C@@H]3O[C@H]1C[C@H](NC(=O)[C@H](CC(C)C)NC(=O)[C@H](CC(N)=O)NC(=O)[C@H](C)NC(=O)[C@H](C)NC(=O)CCOCCOCCOCCOCCNC(=O)CCN2C(=O)C=CC2=O)[C@H](O)[C@H](C)O1 [QHL-093-DOX] ({Propanoyl(3-maleimido)-PEG4}-AANL-{Doxorubicin(3'-N)})	> 20 mg/mL
COc1cccc2c1C(=O)c1c(O)c3c(c(O)c1C2=O)C[C@@](O)(C(=O)CO)C[C@@H]3O[C@H]1C[C@H](NC(=O)[C@H](CC(C)C)NC(=O)[C@H](CC(N)=O)NC(=O)[C@H](C)NC(=O)[C@H](C)NC(=O)CCOCCOCCOCCNC(=O)CCCN2C(=O)C=CC2=O)[C@H](O)[C@H](C)O1 [QHL-102-DOX] ({Butanoyl(4-maleimido)-PEG3}-AANL-{Doxorubicin(3'-N)})	> 10 mg/mL
CC(C)CC(NC(=O)[C@@H](CC(N)=O)NC(=O)[C@@H](C)NC(=O)[C@@H](C)NC(=O)CCOCCOCCNC(=O)CCN1C(=O)C=CC1=O)C(=O)N(C)CCNC(=O)c1cc(Oc2ccc(NC(=O)Nc3ccc(Cl)c(C(F)(F)F)c3)cc2)ccn1 (some centres unmarked) [QHL-087-compound a] ({Propanoyl(3-maleimido)-PEG2}-[dA][dA][dN][ξL]-X10)	> 10 mg/mL
CC(NC(=O)CCOCCOCCOCCOCCOCCOCCNC(=O)CCCN1C(=O)C=CC1=O)C(=O)NC(C)C(=O)NC(CC(N)=O)C(=O)Nc1ccc(COC(=O)N2CC3(C2)C(=O)[O][Pt-2]([NH3+])([NH3+])[O]C3=O)cc1 (centres unmarked) [QHL-107-N-CBP]	> 10 mg/mL
COc1cccc2c1C(=O)c1c(O)c3c(c(O)c1C2=O)C[C@@](O)(C(=O)CO)C[C@@H]3O[C@H]1C[C@H](NC(=O)[C@H](CC(C)C)NC(=O)[C@H](CC(N)=O)NC(=O)[C@H](C)NC(=O)[C@H](C)NC(=O)[C@H](CCC(=O)O)NC(=O)CCN2C(=O)C=CC2=O)[C@H](O)[C@H](C)O1 [QHL-111-DOX] ({Propanoyl(3-maleimido)}-EAANL-{Doxorubicin(3'-N)})	> 10 mg/mL
COc1cccc2c1C(=O)c1c(O)c3c(c(O)c1C2=O)C[C@@](O)(C(=O)CO)C[C@@H]3O[C@H]1C[C@H](NC(=O)[C@H](CC(C)C)NC(=O)[C@H](CC(N)=O)NC(=O)[C@H](C)NC(=O)[C@H](C)NC(=O)CCOCCOCCOCCOCCOCCOCCNC(=O)CCCN2C(=O)C=CC2=O)[C@H](O)[C@H](C)O1 [QHL-108-DOX] ({Butanoyl(4-maleimido)-PEG6}-AANL-{Doxorubicin(3'-N)})	> 20 mg/mL
COc1cccc2c1C(=O)c1c(O)c3c(c(O)c1C2=O)C[C@@](O)(C(=O)CO)C[C@@H]3O[C@H]1C[C@H](NC(=O)[C@H](CC(C)C)NC(=O)[C@H](CC(N)=O)NC(=O)[C@H](C)NC(=O)[C@H](C)NC(=O)[C@H](CCC(=O)O)NC(=O)CCOCCOCCOCCNC(=O)CCCN2C(=O)C=CC2=O)[C@H](O)[C@H](C)O1 [QHL-069-DOX] ({Butanoyl(4-maleimido)-PEG3}-EAANL-{Doxorubicin(3'-N)})	> 25 mg/mL
COc1cccc2c1C(=O)c1c(O)c3c(c(O)c1C2=O)C[C@@](O)(C(=O)CO)C[C@@H]3O[C@H]1C[C@H](NC(=O)[C@H](CC(C)C)NC(=O)[C@H](CC(N)=O)NC(=O)[C@H](C)NC(=O)[C@H](C)NC(=O)[C@H](CC(=O)O)NC(=O)CCN2C(=O)C=CC2=O)[C@H](O)[C@H](C)O1 [QHL-114-DOX] ({Propanoyl(3-maleimido)}-DAANL-{Doxorubicin(3'-N)})	> 15 mg/mL
COc1cccc2c1C(=O)c1c(O)c3c(c(O)c1C2=O)C[C@@](O)(C(=O)CO)C[C@@H]3O[C@H]1C[C@H](NC(=O)[C@H](CC(C)C)NC(=O)[C@H](CC(N)=O)NC(=O)[C@H](C)NC(=O)[C@H](C)NC(=O)[C@H](Cc2c[nH]cn2)NC(=O)CCCCCN2C(=O)C=CC2=O)[C@H](O)[C@H](C)O1 [QHL-137-DOX] ({Hexanoyl(6-maleimido)}-HAANL-{Doxorubicin(3'-N)})	> 5 mg/mL
COc1cccc2c1C(=O)c1c(O)c3c(c(O)c1C2=O)C[C@@](O)(C(=O)CO)C[C@@H]3O[C@H]1C[C@H](NC(=O)[C@H](CC(C)C)NC(=O)[C@H](CC(N)=O)NC(=O)[C@H](C)NC(=O)[C@H](C)NC(=O)[C@H](CCC(=O)O)NC(=O)CCOCCOCCOCCN2C(=O)C=CC2=O)[C@H](O)[C@H](C)O1 [QHL-022-DOX] (X1-EAANL-{Doxorubicin(3'-N)})	> 20 mg/mL
CC(C)CC(NC(=O)C(CC(N)=O)NC(=O)C(C)NC(=O)C(C)NC(=O)CN1C(=O)C=CC1=O)C(=O)N1CC2(C1)C(=O)[O][Pt-2]([NH3+])([NH3+])[O]C2=O (centres unmarked) [QHL-144-N-CBP] (Maleimidoacetyl-AANL-X4; configuration not given here)	> 10 mg/mL
COc1cccc2c1C(=O)c1c(O)c3c(c(O)c1C2=O)C[C@@](O)(C(=O)CO)C[C@@H]3O[C@@H]1C[C@H](NC(=O)OCc2ccc(NC(=O)[C@@H](CC(N)=O)NC(=O)[C@@H](C)NC(=O)[C@@H](C)NC(=O)CCOCCOCCOCCNC(=O)CCN3C(=O)C=CC3=O)cc2)[C@@H](O)[C@H](C)O1 [QHL-089-epirubicin]	> 20 mg/mL
COc1cccc2c1C(=O)c1c(O)c3c(c(O)c1C2=O)C[C@@](O)(C(=O)CO)C[C@@H]3O[C@H]1C[C@H](NC(=O)[C@H](CC(C)C)NC(=O)[C@H](CC(N)=O)NC(=O)[C@H](C)NC(=O)[C@H](C)NC(=O)[C@H](CCC(=O)O)NC(=O)CCOCCOCCNC(=O)CCN2C(=O)C=CC2=O)[C@H](O)[C@H](C)O1 [QHL-039-DOX] ({Propanoyl(3-maleimido)-PEG2}-EAANL-{Doxorubicin(3'-N)})	> 20 mg/mL
COc1cccc2c1C(=O)c1c(O)c3c(c(O)c1C2=O)C[C@@](O)(C(=O)CO)C[C@@H]3O[C@H]1C[C@H](NC(=O)[C@H](CC(C)C)NC(=O)[C@H](CC(N)=O)NC(=O)[C@H](C)NC(=O)[C@H](C)NC(=O)[C@H](CCC(=O)O)NC(=O)CCOCCOCCOCCOCCOCCOCCN2C(=O)C=CC2=O)[C@H](O)[C@H](C)O1 [QHL-024-DOX] ({Mal(CH2CH2O)6CH2CH2CO}-EAANL-{Doxorubicin(3'-N)})	> 30 mg/mL

Reference: patent US20230414771A1, “PREPARATION AND USE OF IMMUNOSTIMULATORY CONJUGATED COMPLEXES FOR TARGETED DELIVERY AND ACTIVATION” (YAFEI SHANGHAI BIOLOGY MEDICINE SCIENCE & TECHNOLOGY CO., …, priority 2020, published 2023)
